Reference: publication PMC4336329 (PLoS ONE, 2015)
Among all 310,000 compounds or so, about 14,000 (4.5%) showed an effect of 50% or more. Effects have a minus sign here. Some of the results follow.

Target: human ether-à-go-go-related gene (hERG) potassium channel (human, UniProt Q12809)
Test: primary screen, population patch clamp on CHO cells stably expressing hERG
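Also: peak tail current of the secondary pulse compared with the same well before compound.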

human ether-à-go-go-related gene (hERG) potassium channel, sequence (Q12809 whole entry, looked up): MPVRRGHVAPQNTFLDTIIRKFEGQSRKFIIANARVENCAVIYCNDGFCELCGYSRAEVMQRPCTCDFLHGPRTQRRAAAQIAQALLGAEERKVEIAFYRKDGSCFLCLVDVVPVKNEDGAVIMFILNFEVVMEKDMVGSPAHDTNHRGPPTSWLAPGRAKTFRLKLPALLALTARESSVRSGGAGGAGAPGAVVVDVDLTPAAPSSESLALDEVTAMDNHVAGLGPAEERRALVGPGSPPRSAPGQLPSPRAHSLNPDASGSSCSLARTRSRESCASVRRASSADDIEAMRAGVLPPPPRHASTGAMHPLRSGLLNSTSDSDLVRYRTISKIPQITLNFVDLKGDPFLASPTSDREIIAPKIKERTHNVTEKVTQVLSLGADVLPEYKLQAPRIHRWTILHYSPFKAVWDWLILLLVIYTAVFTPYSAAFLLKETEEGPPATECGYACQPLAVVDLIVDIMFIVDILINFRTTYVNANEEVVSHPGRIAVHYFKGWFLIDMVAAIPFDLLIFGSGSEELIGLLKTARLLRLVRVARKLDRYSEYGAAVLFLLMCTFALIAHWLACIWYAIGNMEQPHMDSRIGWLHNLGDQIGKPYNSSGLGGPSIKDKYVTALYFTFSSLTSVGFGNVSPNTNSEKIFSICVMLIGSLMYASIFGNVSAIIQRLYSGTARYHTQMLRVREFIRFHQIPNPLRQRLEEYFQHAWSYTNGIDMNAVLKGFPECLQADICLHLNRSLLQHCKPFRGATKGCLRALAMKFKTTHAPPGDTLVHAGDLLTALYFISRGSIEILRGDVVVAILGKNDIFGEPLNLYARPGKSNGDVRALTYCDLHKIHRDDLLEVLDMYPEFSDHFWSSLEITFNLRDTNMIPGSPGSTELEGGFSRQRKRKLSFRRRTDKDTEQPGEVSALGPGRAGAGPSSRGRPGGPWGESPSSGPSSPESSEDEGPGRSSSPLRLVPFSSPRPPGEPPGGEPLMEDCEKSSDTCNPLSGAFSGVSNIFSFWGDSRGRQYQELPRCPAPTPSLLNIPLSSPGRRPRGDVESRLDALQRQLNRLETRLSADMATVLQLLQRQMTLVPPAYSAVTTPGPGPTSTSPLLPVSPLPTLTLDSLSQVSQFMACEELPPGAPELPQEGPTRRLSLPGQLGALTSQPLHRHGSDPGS

Row | Compound | hERG current change (%, negative = inhibition) at 10uM [%]
1 | COc1ccc(NC(=O)CSc2nnc(-c3ccco3)n2N)cc1Cl | -6.79
2 | Cc1ccc(C(=O)Nc2ccc(Oc3ccc(C(=O)O)c(C(=O)O)c3)cc2)cc1C | 2.57
3 | CCCCCCCCCOC(=O)C1N2C(=O)[C@@H](NC(=O)COc3ccccc3)[C@H]2SC1(C)C (some centres unmarked) | -2.03
4 | O=C(Nc1nc(-c2ccco2)cs1)c1ccccc1 | -2.84
5 | CC1CN(Cc2ccccc2)c2nc3c(c(=O)n(CC(=O)O)c(=O)n3C)n2C1 (centres unmarked) | 18.8
6 | CN(C)S(=O)(=O)c1ccc(C(=O)OC2CCOC2=O)cc1 (centres unmarked) | 23.8
7 | CN(C(=O)c1c[nH]c(=O)cc1C(F)(F)F)c1ccc(Cl)c(Cl)c1 | 17.8
8 | Cc1noc(C)c1C(=O)NCc1ccccc1 | 26.8
9 | c1ccc(-c2nnc(CSc3nncs3)o2)cc1 | 7.49
10 | COc1ccc(N2CC(C(=O)NCc3ccco3)CC2=O)cc1 (centres unmarked) | 9.62
11 | Cc1ccc(/C=C2\CC(C)CC3=C2NC(=S)NC3c2ccc(C)cc2)cc1 (centres unmarked) | -14.1
12 | COc1ccccc1N1CCN(c2ncnc3sc(C)c(-c4ccccc4)c23)CC1 | 14.2
13 | COC(=O)Nc1ccc(S(=O)(=O)NC2CCS(=O)(=O)C2)cc1 (centres unmarked) | 19
14 | O=C(COc1ccc(F)cc1)c1ccc2c(c1)CCCC2 | -5.65
15 | C#C[C@]1(O)CC[C@H]2[C@@H]3CCC4=Cc5nc6nc7ccccc7n6cc5C[C@]4(C)[C@H]3CC[C@@]21C | -56.8
16 | O=C(NO)c1ccccc1O | 13.1
17 | COc1ccc(C(=O)N/N=C/c2ccc(N3CCOCC3)o2)cc1OC | -12.6
18 | COc1ccc(NS(=O)(=O)c2cccc(NC(=O)c3cnccn3)c2)cc1Br | -0.864
19 | COc1cccc(-c2nnc(SCc3ccc(C#N)cc3)n2Cc2ccco2)c1 | -70.3
20 | COc1ccc(C2N(C(=O)N(C)C)CCN2S(=O)(=O)c2ccc(OC)cc2)cc1 (centres unmarked) | -24.8
21 | CCOC(=O)C1=C(C)NC(=O)NC1c1cc(Br)c(O)c(OC)c1 (centres unmarked) | -2.71
22 | O=[N+]([O-])c1cc([N+](=O)[O-])c(Oc2c(F)ccc(F)c2F)cc1NN1CCCCC1 | 19.8
23 | COc1ccc([C@H]2CC(=O)C=C(c3cc(C=O)ccc3OC)C2)cc1 | -29.9

Row | Compound | hERG current change (%, negative = inhibition) at 10uM [%]
24 | Cc1ccc(N2C(=O)c3n[nH]c(C)c3C2c2ccccn2)cc1 (centres unmarked) | -5.29
25 | Cc1cc(-c2ccccc2)nc(N(C)NC(=O)c2cccc(C(F)(F)F)c2)c1S(C)(=O)=O | 10.5
26 | Cn1c(=O)c2c(nc(NCCCO)n2C/C=C/c2ccccc2)n(C)c1=O | -21
27 | S=C(N/N=C1\CCc2ccccc21)NC1CCCCC1 | -10.2
28 | C/C(CCC1CC(C)(C)OC1=O)=N\NC(N)=S (centres unmarked) | -8.45
29 | CCOC(=O)N1CCN(C(=O)CSCC(=O)Nc2nc(-c3ccc4c(c3)OCO4)cs2)CC1 | -32.8
30 | O=C(OCc1ccc(Cl)c(Cl)c1)c1ccccn1 | -0.108
31 | Cc1ccc(NC(=O)c2cccc3c2C(=O)N(C2CCCCC2)C3)c(Cl)c1 | -3.98
32 | Cc1ccn2c(=O)nc(SCC(=O)Nc3cc(C)on3)nc2c1 | -17.4
33 | O=C(COC(=O)c1ccc(Br)o1)Nc1cccc(S(=O)(=O)N2CCCCCC2)c1 | -14.9
34 | CCOC(=O)C1CCN(CC(=O)Nc2ccc(OC)c(Cl)c2)CC1 | -12.5
35 | CCCCN(C(=O)NC(=O)Nc1cc(C)ccc1C)S(C)(=O)=O | 17.9
36 | COc1ccc(NC(=O)CCCN2C(=O)CCC2=O)cc1Cl | 1.72
37 | COc1ccc(OC)c2sc(NC(=O)C3COc4ccccc4O3)nc12 (centres unmarked) | -2.7
38 | Clc1ccc(-c2csc3ncnc(Cl)c23)cc1 | 6.78
39 | CCOC(=O)C1CCc2sc(N)c(C#N)c21 (centres unmarked) | 19.6
40 | O=C(NC1(C(F)(F)F)NC(=O)N(Cc2ccco2)C1=O)c1cccs1 (centres unmarked) | 21.7
41 | CCOc1ccc(NC(=O)CN(C)C(=O)c2cc(S(=O)(=O)N(C)C)ccc2N2CCCC2)cc1OCC | 6.11
42 | CN(C)c1ccc(S(=O)(=O)c2ccc(Cl)cc2)cc1 | 1.3
43 | CCCn1nnnc1NCc1ccc(OC)cc1 | 15.3
44 | N=c1c2c(ncn1CCN1CCOCC1)Oc1ccc3ccccc3c1C2c1ccccc1 (centres unmarked) | -49.3
45 | O=C(NCc1nc(-c2ccc(C(F)(F)F)cc2)no1)c1cccs1 | 5.51
46 | O=C(NN1CCOCC1)c1cn(-c2ccccc2)nc1-c1cccs1 | -1.47

Row | Compound | hERG current change (%, negative = inhibition) at 10uM [%]
47 | CN1CCN(CC(=O)N/N=C\c2c[nH]c3ccccc23)CC1 | 16.2
48 | CN(CC(=O)Nc1ccc(OC(F)(F)F)cc1)C(=O)/C=C/c1cc2c(cc1[N+](=O)[O-])OCO2 | -20.7
49 | CCc1ccc(-c2cc3c(=O)n(CC(=O)NCCCN4CCN(Cc5ccccc5)CC4)nc(C)n3n2)cc1 | -22.7
50 | CCCN(Cc1cc2cc(C)ccc2[nH]c1=O)C(=O)c1cccc(OC)c1 | -9.19
51 | COc1ccc(F)cc1C(=O)C1CCCN(Cc2cnc(C)s2)C1 (centres unmarked) | -21
52 | COc1ccccc1C(=O)NCCC(=O)N1CCN(S(=O)(=O)c2ccc(Cl)cc2)CC1 | -33
53 | Cn1nc(C(F)(F)F)cc1Oc1ncc(C(F)(F)F)cc1Cl | 14.6
54 | Cc1cc2ncn(/N=C/c3ccc(-c4ccccc4)o3)c2cc1C | -8.46
55 | CS(=O)c1ccccc1-c1nc(-c2cc(C(F)(F)F)cc(C(F)(F)F)c2)no1 (centres unmarked) | -17.4
56 | COc1ccc(-c2[nH]c(-c3ccc(Cl)cc3)nc2SCC(=O)Nc2nccs2)cc1 | 18.1
57 | O=C(CN1CCN(Cc2ccccc2Cl)C1=O)NCc1cccnc1 | -1.97
58 | Cl.N=c1n(CCN2CCCCC2)c2ccccc2n1CC(O)c1cccc(Br)c1 (centres unmarked) | -63.2
59 | O=C(O)c1cccc(NC(=S)N/N=C/c2ccccn2)c1 | 4.71
60 | S=c1[nH]nc(Cc2cccs2)n1-c1ccccc1Cl | 9.36
61 | CN1C(=O)/C(=C\N2CCc3ccccc32)C(=O)NC1=S | 4.71
62 | CCc1ccc(S(=O)(=O)NCc2cn3ccsc3n2)s1 | 6.83
63 | Cc1cc(=O)n2nc(N3CCC(C(=O)NCc4ccccc4Cl)CC3)sc2n1 | -30.1
64 | COc1ccccc1N1CCN(C(CNC(=O)c2ccc3c(c2)OCO3)c2cccnc2)CC1 (centres unmarked) | -14.6
65 | O=C(NCc1nnc(SCC(=O)N2CCN(c3ccccc3)CC2)o1)c1c(F)cccc1Cl | -32.4
66 | CCn1c(=O)[nH]c2cc(Cl)c(Cl)cc21 | -37.3
67 | CCCOc1ccccc1N1C(=O)CC(N2CCOCC2)C1=O (centres unmarked) | 2.59
68 | CCCOc1ccc(C2NC(=S)NC(C)=C2C(=O)c2ccccc2)cc1OC (centres unmarked) | 7.13
69 | O=[N+]([O-])c1ccc(N2CCN(CCOCCO)CC2)c([N+](=O)[O-])c1 | -45.6

Row | Compound | hERG current change (%, negative = inhibition) at 10uM [%]
70 | CC1CN(C(=O)Nc2ccc3snnc3c2)c2ccccc21 (centres unmarked) | -18
71 | CC1=CCC2C(=O)N(c3cc(C)on3)C(=O)C2C1 (centres unmarked) | -6.97
72 | COc1cc2c(cc1OC)/C(=C/C(=O)c1ccccc1)NCC2 | -16.4
73 | Cn1nc(-c2ccc(C(=O)Nc3cccc(Cl)c3)cc2)c2ccccc2c1=O | -1.1
74 | CCOCCCN1CN(Cc2ccco2)CNC1=S | 7.86
75 | O=C(NCc1ccccn1)c1ccc(Cn2cc(Br)cn2)o1 | 2.17
76 | CC(=O)Nc1ccc(NC(=O)Nc2cccc3ccccc23)cc1 | 18.2
77 | Clc1ccccc1OCCCCN1CCCC1 | -29.6
78 | O=C(C1=C(O)C(=O)N(CC2CCCO2)C1c1cccc(Cl)c1)c1ccco1 (centres unmarked) | -12
79 | COc1ccc(C)c2sc(N(CCN(C)C)C(=O)c3cccc(N4C(=O)CCC4=O)c3)nc12.Cl | -57.9
80 | O=C(NCCNC(=O)c1cc(Cl)ccc1Cl)c1cnccn1 | -7.72
81 | O=C(Nc1cccc(Cl)c1N1CCOCC1)c1ccc(Br)o1 | 6.64
82 | COc1ccc(S(=O)(=O)N(C)CC(=O)NCCC2=CCCCC2)cc1C | -26
83 | CC(C)COc1ccc(-c2nn(-c3ccccc3)cc2CO)cc1 | 10.6
84 | CCCOc1ccc(C(=O)C(c2ccccc2)N2CCOCC2)cc1.Cl (centres unmarked) | -8.62
85 | O=S1(=O)CCC(S(=O)(=O)N2CCCCCC2)C1 (centres unmarked) | 12.5
86 | O=C(OCC(=O)N1CCOCC1)c1cccc(S(=O)(=O)N2CCCc3ccccc32)c1 | -24.9
87 | CCOC(=O)CN(C(=O)c1ccccc1)c1ccccc1C | 0.425
88 | CCn1c(O)c(/C=C2\C=NN=C2c2ccc(C)cc2)sc1=S | 5.76
89 | CNC(=S)Nc1ccc2nc(C)c(C)nc2c1 | 6.61
